# Results: the supplement of paper PMC8728848
# Some of the results follow.
# B1: B160 (Bifidobacterium sp) (protein)
# chain: MVSHNKRIVAALAAVAAMGIGLAGCGGSDTAGDTKSGSDGGVVNITYMHRLPDSEGMTLVNDIVAKWNKEHPNIQVKATKFDGNAADMIKKLETDVKAGNAPDLAQVGYAEVPEVFTKGLLQDVTDEAAKYKDDFASGPFALMQVDGKTYGLPQDTGPLTYFYNAAEFEKLGITVPKTADELIETAKKTAAQGKYIMTFTPDEAMMMMSGQAGASGPWYKVDGNSWVVNTQTKGSKAVADVYQQLIDNKAALTNPRWDASFDNSIQSGQLIGTVAAAWEAPLFIDSAGGTGAGEWKVTQLGDWFGNGTKTGANGGSGVAVLKGSKHPAEAMEFLDWFNTQVDDLVSQGLVVAATTADAKTPQKWSDYFSGQDVMAEFKTANDNMGDFTYMPGFSAVGAAMKQTAAKAADGSAKVSDVFDTAQKTSVDTLKNLGLSVKE
# Assays:
# Assay in all cases: glycan array binding signal (z-score within array); higher = stronger binding
# Conditions in all cases: glycan notation: IUPAC condensed, linker removed
# [1] = target: Neu5Ac(a2-3)Gal(b1-4)GlcNAc(b1-6)GalNAc
# Summary of the method: (§1)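 The binding signal is a Z-score computed within each array. Data were drawn from 3228 arrays in the Consortium for Functional Glycomics database, restricted to those with a known protein sequence. Scores were averaged over arrays of the same protein sequence at different concentrations or buffers, and over linkers, and negative values can be taken as non-binding.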
# [2] = target: Neu5Ac(a2-3)Gal(b1-4)GlcNAc(b1-6)[Gal(b1-3)]GalNAc
# Summary of the method: as §1
# [3] = target: Neu5Ac(a2-3)Gal(b1-4)GlcNAc(b1-6)[Neu5Ac(a2-3)Gal(b1-3)]GalNAc
# Summary of the method: as §1
# [4] = target: Neu5Ac(a2-3)Gal(b1-4)GlcNAc6S
# Summary of the method: as §1
# [5] = target: Neu5Ac(a2-3)Gal(b1-4)[Fuc(a1-3)]GlcNAc
# Summary of the method: as §1
# [6] = target: Neu5Ac(a2-3)Gal(b1-4)[Fuc(a1-3)]GlcNAc(b1-2)Man
# Summary of the method: as §1
# [7] = target: Neu5Ac(a2-3)Gal(b1-4)[Fuc(a1-3)]GlcNAc(b1-3)Gal
# Summary of the method: as §1
# [8] = target: Neu5Ac(a2-3)Gal(b1-4)[Fuc(a1-3)]GlcNAc(b1-3)Gal(b1-4)GlcNAc
# Summary of the method: as §1
# [9] = target: Neu5Ac(a2-3)Gal(b1-4)[Fuc(a1-3)]GlcNAc(b1-3)Gal(b1-4)[Fuc(a1-3)]GlcNAc(b1-3)Gal(b1-4)[Fuc(a1-3)]GlcNAc
# Summary of the method: as §1
# [10] = target: Neu5Ac(a2-3)Gal(b1-4)[Fuc(a1-3)]GlcNAc(b1-3)GalNAc
# Summary of the method: as §1
# [11] = target: Neu5Ac(a2-3)Gal(b1-4)[Fuc(a1-3)]GlcNAc(b1-6)[Gal(b1-3)]GalNAc
# Summary of the method: as §1
# [12] = target: Neu5Ac(a2-3)Gal(b1-4)[Fuc(a1-3)]GlcNAc(b1-6)[Neu5Ac(a2-3)Gal(b1-3)]GalNAc
# Summary of the method: as §1
# [13] = target: Neu5Ac(a2-3)Gal(b1-4)[Fuc(a1-3)]GlcNAc6S
# Summary of the method: as §1
# [14] = target: Neu5Ac(a2-3)Gal6S(b1-4)GlcNAc
# Summary of the method: as §1
# [15] = target: Neu5Ac(a2-3)Gal6S(b1-4)[Fuc(a1-3)]GlcNAc
# Summary of the method: as §1
# Neu5Ac(a2-3)GalNAc = target: Neu5Ac(a2-3)GalNAc
# Summary of the method: as §1
# [16] = target: Neu5Ac(a2-3)GalNAc(b1-4)GlcNAc
# Summary of the method: as §1
# [17] = target: Neu5Ac(a2-3)[GalNAc(b1-4)]Gal(b1-4)Glc
# Summary of the method: as §1
# [18] = target: Neu5Ac(a2-3)[GalNAc(b1-4)]Gal(b1-4)GlcNAc
# Summary of the method: as §1
# [19] = target: Neu5Ac(a2-3)[GalNAc(b1-4)]Gal(b1-4)GlcNAc(b1-3)GalNAc
# Summary of the method: as §1
# [20] = target: Neu5Ac(a2-3)[Neu5Ac(a2-6)]GalNAc
# Summary of the method: as §1
# Neu5Ac(a2-6)Gal = target: Neu5Ac(a2-6)Gal
# Summary of the method: as §1
# [21] = target: Neu5Ac(a2-6)Gal(b1-3)GlcNAc(b1-3)[Gal(b1-4)GlcNAc(b1-6)]Gal(b1-4)Glc
# Summary of the method: as §1
# Neu5Ac(a2-6)Gal(b1-4)Glc = target: Neu5Ac(a2-6)Gal(b1-4)Glc
# Summary of the method: as §1
# [22] = target: Neu5Ac(a2-6)Gal(b1-4)GlcNAc
# Summary of the method: as §1
# [23] = target: Neu5Ac(a2-6)Gal(b1-4)GlcNAc(b1-2)Man
# Summary of the method: as §1
# [24] = target: Neu5Ac(a2-6)Gal(b1-4)GlcNAc(b1-2)Man(a1-3)Man(b1-4)GlcNAc(b1-4)GlcNAc
# Summary of the method: as §1
# [25] = target: Neu5Ac(a2-6)Gal(b1-4)GlcNAc(b1-2)Man(a1-3)[Gal(b1-4)GlcNAc(b1-2)Man(a1-6)]Man(b1-4)GlcNAc(b1-4)GlcNAc
# Summary of the method: as §1
# [26] = target: Neu5Ac(a2-6)Gal(b1-4)GlcNAc(b1-2)Man(a1-3)[GlcNAc(b1-2)Man(a1-6)]Man(b1-4)GlcNAc(b1-4)GlcNAc
# Summary of the method: as §1
# [27] = target: Neu5Ac(a2-6)Gal(b1-4)GlcNAc(b1-2)Man(a1-3)[GlcNAc(b1-4)][Neu5Ac(a2-6)Gal(b1-4)GlcNAc(b1-2)Man(a1-6)]Man(b1-4)GlcNAc(b1-4)GlcNAc
# Summary of the method: as §1
# [28] = target: Neu5Ac(a2-6)Gal(b1-4)GlcNAc(b1-2)Man(a1-3)[Man(a1-6)]Man(b1-4)GlcNAc(b1-4)GlcNAc
# Summary of the method: as §1
# [29] = target: Neu5Ac(a2-6)Gal(b1-4)GlcNAc(b1-2)Man(a1-3)[Neu5Ac(a2-3)Gal(b1-4)GlcNAc(b1-2)Man(a1-6)]Man(b1-4)GlcNAc(b1-4)GlcNAc
# Summary of the method: as §1
# [30] = target: Neu5Ac(a2-6)Gal(b1-4)GlcNAc(b1-2)Man(a1-3)[Neu5Ac(a2-6)Gal(b1-4)GlcNAc(b1-2)Man(a1-6)]Man(b1-4)GlcNAc(b1-4)GlcNAc
# Summary of the method: as §1
# [31] = target: Neu5Ac(a2-6)Gal(b1-4)GlcNAc(b1-2)Man(a1-3)[Neu5Ac(a2-6)Gal(b1-4)GlcNAc(b1-2)Man(a1-6)]Man(b1-4)GlcNAc(b1-4)[Fuc(a1-6)]GlcNAc
# Summary of the method: as §1
# [32] = target: Neu5Ac(a2-6)Gal(b1-4)GlcNAc(b1-2)Man(a1-6)Man(b1-4)GlcNAc(b1-4)GlcNAc
# Summary of the method: as §1
# [33] = target: Neu5Ac(a2-6)Gal(b1-4)GlcNAc(b1-2)Man(a1-6)[Gal(b1-4)GlcNAc(b1-2)Man(a1-3)]Man(b1-4)GlcNAc(b1-4)GlcNAc
# Summary of the method: as §1
# [34] = target: Neu5Ac(a2-6)Gal(b1-4)GlcNAc(b1-2)Man(a1-6)[GlcNAc(b1-2)Man(a1-3)]Man(b1-4)GlcNAc(b1-4)GlcNAc
# Summary of the method: as §1
# [35] = target: Neu5Ac(a2-6)Gal(b1-4)GlcNAc(b1-2)Man(a1-6)[Man(a1-3)]Man(b1-4)GlcNAc(b1-4)GlcNAc
# Summary of the method: as §1
# [36] = target: Neu5Ac(a2-6)Gal(b1-4)GlcNAc(b1-2)[Neu5Ac(a2-6)Gal(b1-4)GlcNAc(b1-4)]Man(a1-3)[GlcNAc(b1-4)][Neu5Ac(a2-6)Gal(b1-4)GlcNAc(b1-2)[Neu5Ac(a2-6)Gal(b1-4)GlcNAc(b1-6)]Man(a1-6)]Man(b1-4)GlcNAc(b1-4)GlcNAc
# Summary of the method: as §1
# [37] = target: Neu5Ac(a2-6)Gal(b1-4)GlcNAc(b1-2)[Neu5Ac(a2-6)Gal(b1-4)GlcNAc(b1-4)]Man(a1-3)[GlcNAc(b1-4)][Neu5Ac(a2-6)Gal(b1-4)GlcNAc(b1-4)Man(a1-6)]Man(b1-4)GlcNAc(b1-4)GlcNAc
# Summary of the method: as §1
# [38] = target: Neu5Ac(a2-6)Gal(b1-4)GlcNAc(b1-2)[Neu5Ac(a2-6)Gal(b1-4)GlcNAc(b1-6)]Man(a1-6)[Neu5Ac(a2-6)Gal(b1-4)GlcNAc(b1-2)Man(a1-3)][GlcNAc(b1-4)]Man(b1-4)GlcNAc(b1-4)GlcNAc
# Summary of the method: as §1
# [39] = target: Neu5Ac(a2-6)Gal(b1-4)GlcNAc(b1-3)Gal(b1-3)GlcNAc
# Summary of the method: as §1
# [40] = target: Neu5Ac(a2-6)Gal(b1-4)GlcNAc(b1-3)Gal(b1-4)GlcNAc
# Summary of the method: as §1
# [41] = target: Neu5Ac(a2-6)Gal(b1-4)GlcNAc(b1-3)Gal(b1-4)GlcNAc(b1-2)Man(a1-3)[Neu5Ac(a2-6)Gal(b1-4)GlcNAc(b1-3)Gal(b1-4)GlcNAc(b1-2)Man(a1-6)]GalNAc
# Summary of the method: as §1
# [42] = target: Neu5Ac(a2-6)Gal(b1-4)GlcNAc(b1-3)Gal(b1-4)GlcNAc(b1-3)Gal(b1-4)GlcNAc
# Summary of the method: as §1
# [43] = target: Neu5Ac(a2-6)Gal(b1-4)GlcNAc(b1-3)Gal(b1-4)GlcNAc(b1-3)Gal(b1-4)GlcNAc(b1-2)Man(a1-3)[Neu5Ac(a2-6)Gal(b1-4)GlcNAc(b1-3)Gal(b1-4)GlcNAc(b1-3)Gal(b1-4)GlcNAc(b1-2)Man(a1-6)]GalNAc
# Summary of the method: as §1
binder,measurement,setting,value
B1,glycan array binding signal (z-score),[1],-0.15
same,glycan array binding signal (z-score),[2],-0.184
same,glycan array binding signal (z-score),[3],-0.185
same,glycan array binding signal (z-score),[4],-0.173
same,glycan array binding signal (z-score),[5],-0.183
same,glycan array binding signal (z-score),[6],-0.188
same,glycan array binding signal (z-score),[7],-0.168
same,glycan array binding signal (z-score),[8],-0.165
same,glycan array binding signal (z-score),[9],-0.167
same,glycan array binding signal (z-score),[10],-0.107
same,glycan array binding signal (z-score),[11],-0.078
same,glycan array binding signal (z-score),[12],-0.104
same,glycan array binding signal (z-score),[13],-0.175
same,glycan array binding signal (z-score),[14],-0.177
same,glycan array binding signal (z-score),[15],-0.16
same,glycan array binding signal (z-score),Neu5Ac(a2-3)GalNAc,-0.156
same,glycan array binding signal (z-score),[16],-0.174
same,glycan array binding signal (z-score),[17],-0.155
same,glycan array binding signal (z-score),[18],-0.167
same,glycan array binding signal (z-score),[19],-0.12
same,glycan array binding signal (z-score),[20],-0.17
same,glycan array binding signal (z-score),Neu5Ac(a2-6)Gal,-0.171
same,glycan array binding signal (z-score),[21],-0.179
same,glycan array binding signal (z-score),Neu5Ac(a2-6)Gal(b1-4)Glc,-0.194
same,glycan array binding signal (z-score),[22],-0.179
same,glycan array binding signal (z-score),[23],-0.162
same,glycan array binding signal (z-score),[24],-0.145
same,glycan array binding signal (z-score),[25],-0.158
same,glycan array binding signal (z-score),[26],-0.168
same,glycan array binding signal (z-score),[27],-0.167
same,glycan array binding signal (z-score),[28],-0.165
same,glycan array binding signal (z-score),[29],-0.181
same,glycan array binding signal (z-score),[30],-0.16
same,glycan array binding signal (z-score),[31],-0.141
same,glycan array binding signal (z-score),[32],-0.163
same,glycan array binding signal (z-score),[33],-0.136
same,glycan array binding signal (z-score),[34],-0.184
same,glycan array binding signal (z-score),[35],-0.173
same,glycan array binding signal (z-score),[36],-0.141
same,glycan array binding signal (z-score),[37],-0.17
same,glycan array binding signal (z-score),[38],-0.14
same,glycan array binding signal (z-score),[39],-0.179
same,glycan array binding signal (z-score),[40],-0.175
same,glycan array binding signal (z-score),[41],-0.158
same,glycan array binding signal (z-score),[42],-0.145
same,glycan array binding signal (z-score),[43],-0.109
